Measurements reported in ChEMBL document CHEMBL4346670, “Discovery of Novel Janus Kinase (JAK) and Histone Deacetylase (HDAC) Dual Inhibitors for the Treatment of Hematological Malignancies” (J Med Chem, 2019).

Target: Activin receptor type-1B (Homo sapiens) (UniProt P36896)
Assay: Inhibition of recombinant human ALK4 at 200 nM using Ulight-DNA topoisomerase 2alpha as substrate measured after 30 mins by LANCE assay relative to control
Outline: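 Human recombinant kinases tested at 20 nM and 200 nM compound in an outsourced panel of 85 kinases. Activity measured as phosphorylation of a ULight-labelled substrate by LANCE detection, expressed as inhibition relative to control.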

UniProt P36896, sequence (P36896 whole entry): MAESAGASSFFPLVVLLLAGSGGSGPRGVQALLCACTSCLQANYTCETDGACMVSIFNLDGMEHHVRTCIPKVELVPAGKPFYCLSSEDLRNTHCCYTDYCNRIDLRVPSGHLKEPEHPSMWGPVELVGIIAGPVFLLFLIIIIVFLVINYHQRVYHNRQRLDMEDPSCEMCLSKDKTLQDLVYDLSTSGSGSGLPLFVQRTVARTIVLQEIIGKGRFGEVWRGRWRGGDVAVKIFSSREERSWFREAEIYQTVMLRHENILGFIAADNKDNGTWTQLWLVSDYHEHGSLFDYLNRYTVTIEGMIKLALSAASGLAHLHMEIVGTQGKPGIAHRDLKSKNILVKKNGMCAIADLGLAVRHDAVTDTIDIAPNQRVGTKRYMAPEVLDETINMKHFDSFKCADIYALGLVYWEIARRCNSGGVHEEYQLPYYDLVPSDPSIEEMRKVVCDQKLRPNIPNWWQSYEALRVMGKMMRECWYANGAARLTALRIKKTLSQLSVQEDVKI

inhibition: 27%
Compound: O=C(CCCCCn1cc(Nc2ncc(Cl)c(Nc3ccc(Cl)cc3)n2)cn1)NO
